{
  "source": "PubChem BioAssay AID686979",
  "about": "(National Center for Advancing Translational Sciences (NCATS), 2013)",
  "note": "Screen size: about 420,000 compounds; about 50,000 (12%) were called active. Inconclusive results, whose numbers are uncertain, are shown with a selection of clear calls. The call rests on the fitted dose curve; in most records, active means well fitted inhibition curve with a large enough effect; inconclusive means small, poorly fitted or top-dose-only effect; inactive means flat fitted curve, though single readings scatter. Potencies of inconclusive entries are left out as doubtful fits. On the % scale 0 is the no-effect control and ±100 the full control effect; potency means the concentration at half of the fitted maximal effect; tags describe the fitted curve by direction and shape.",
  "data": [
    {"assay": "qHTS for Inhibitors of human tyrosyl-DNA phosphodiesterase 1 (TDP1): qHTS in cells in presence of CPT; further: nearly all actives have a fitted effect of over 55% in size", "details": "chicken DT40 Tdp1-/-;hTDP1 cells + 20 nM CPT, ATP luminescence, 48 h; activity change, negative = growth inhibition: at 46.2 µM (top of the series)", "procedure,_shortened": "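Cell growth measured by CellTiter-Glo luminescence after a minimum 48 h, 37 C compound exposure with 20 nM CPT in Tdp1-knockout DT40 cells stably expressing hTDP1, seeded 400/well; qHTS titration format.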", "values": [
      {"compound": "COc1ccc(-n2cc(CNCc3cnc4ccccn34)c(-c3cccc(F)c3)n2)cc1", "Potency": "inconclusive [inhibitor, single point]"},
      {"compound": "Cc1cc(S(=O)(=O)N2CCOCC2)ccc1OCC(=O)N1CCOCC1", "activity change, negative = growth inhibition": "inactive: -7.17%"},
      {"compound": "CC(=O)CC1c2cc(F)ccc2C=C(c2ccsc2)N1c1ccc(-c2cccnc2)cc1", "note": "(centres undefined)", "Potency": "inconclusive [inhibitor, single point]"},
      {"compound": "Cc1c(OCC(=O)NCC2CCC(C(=O)O)CC2)ccc2c(-c3ccccc3)cc(=O)oc12", "note": "(centres undefined)", "activity change, negative = growth inhibition": "inactive: -26.2%"},
      {"compound": "CN1CCN(CC#CCn2c3ccccc3c3ccccc32)CC1", "Potency": "inconclusive [inhibitor, single point]"},
      {"compound": "CC1CCN(c2cc(N3CCOCC3)c(F)cc2[N+](=O)[O-])CC1", "activity change, negative = growth inhibition": "inactive: -17.3%"},
      {"compound": "CCCCc1nc2c(C)c(N)cnc2n1Cc1cccc([N+](=O)[O-])c1", "activity change, negative = growth inhibition": "inactive: -1.44%"},
      {"compound": "CC(C(=O)NC1CCS(=O)(=O)C1)N1C(=O)/C(=C/c2ccc(Cl)cc2)SC1=S", "note": "(centres undefined)", "activity change, negative = growth inhibition": "inactive: -27.2%"},
      {"compound": "COc1cc(NCCCn2cnc3c(OC)ncnc32)cc(OC)c1OC", "activity change, negative = growth inhibition": "inactive: -13.9%"},
      {"compound": "O=C(Nn1c(O)c(C=C2N=c3ccccc3=N2)sc1=S)c1ccc(Cl)cc1", "Potency": "inconclusive [inhibitor, single point]"},
      {"compound": "CC(C)(C)c1cc(N2CCOCC2)n2ncc(-c3ccc(Cl)cc3)c2n1", "Potency": "inconclusive [inhibitor, single point]"},
      {"compound": "Cn1c(=O)c2c(nc(Br)n2CCc2ccccc2)n(C)c1=O", "Potency": "inconclusive [inhibitor, single point]"},
      {"compound": "Cc1ccc(N(C)S(=O)(=O)c2ccc(C)cc2)cc1", "Potency": "inconclusive [inhibitor, single point]"},
      {"compound": "Cc1cccc(C)c1Nc1c(-c2ccccc2F)nc2cccc(C)n12", "Potency": "active: 10.3 µM"},
      {"compound": "O=C(Cc1ccccc1)NNS(=O)(=O)c1ccc([N+](=O)[O-])cc1", "activity change, negative = growth inhibition": "inactive: -20.3%"},
      {"compound": "O=C(c1ccoc1)N1CCC2(CC1)Oc1ccc(F)cc1C(=O)C21CC(c2ccccc2)=NO1", "note": "(centres undefined)", "Potency": "inconclusive [inhibitor, single point]"},
      {"compound": "Cc1ccc(C)c(S(=O)(=O)N2CCN(C(=O)c3cncc(Br)c3)CC2)c1", "activity change, negative = growth inhibition": "inactive: 2.7%"},
      {"compound": "COc1ccc(OCC(=O)Nc2nnc(S(=O)(=O)N3CCc4ccccc43)s2)cc1", "Potency": "inconclusive [inhibitor, single point]"},
      {"compound": "C[C@@H](NC(=O)Cn1ccc(NC(=O)OCc2ccccc2)nc1=O)c1cccc2ccccc12", "Potency": "inconclusive [inhibitor, single point]"},
      {"compound": "CCc1cc2c(=O)c(-c3nc(C)cs3)coc2cc1OC(C)C(=O)NCCO", "note": "(centres undefined)", "Potency": "inconclusive [inhibitor, single point]"},
      {"compound": "CC(=NNC(=O)c1cccc(S(=O)(=O)N2CCOCC2)c1)c1ccc(Cl)cc1", "Potency": "inconclusive [inhibitor, single point]"},
      {"compound": "c1ccc(OCc2nc3c4c(ncn3n2)-c2ccccc2CC42CCCC2)cc1", "Potency": "inconclusive [inhibitor, single point]"},
      {"compound": "CCOC(=O)C1=CCN(S(=O)(=O)c2ccccc2F)C1c1cccc(Br)c1", "note": "(centres undefined)", "Potency": "inconclusive [inhibitor, single point]"},
      {"compound": "O=S(=O)(NN=Cc1cccc(Cl)c1)c1ccccc1", "Potency": "inconclusive [inhibitor, single point]"},
      {"compound": "CCOc1ccc(C(=O)/C=C/c2cn(CC(O)CN3CCCCCC3)c3ccccc23)cc1", "note": "(centres undefined)", "Potency": "inconclusive [inhibitor, single point]"},
      {"compound": "CC1CCN(C(=O)C(NS(=O)(=O)c2cccc3nsnc23)c2ccccc2)CC1", "note": "(centres undefined)", "Potency": "inconclusive [inhibitor, full curve]"},
      {"compound": "COc1ccc2sc(-c3ccc(S(C)(=O)=O)cc3)c(C(=O)NCCCN3CCCC3=O)c2c1", "Potency": "inconclusive [inhibitor, single point]"},
      {"compound": "CCSc1nc(-c2ccccc2)c(-c2ccccc2)n1CC(O)CO", "note": "(centres undefined)", "Potency": "inconclusive [inhibitor, single point]"},
      {"compound": "OC[C@@H]1CN(Cc2cccs2)C[C@H](n2cnc3c(NC4CCCC4)ncnc32)O1", "Potency": "inconclusive [inhibitor, single point]"},
      {"compound": "Cc1ccc(S(=O)(=O)c2c(COC(=O)c3cccc(Cl)c3)c(-c3ccccc3)nn2C)cc1", "Potency": "active: 23.1 µM"},
      {"compound": "O=C(NCC1CCCO1)c1ccc(CS(=O)(=O)c2ccc(Cl)cc2)o1", "note": "(centres undefined)", "Potency": "inconclusive [inhibitor, single point]"},
      {"compound": "COCC(=O)n1nc(-c2ccccc2)nc1NCc1cccs1", "activity change, negative = growth inhibition": "inactive: 12.6%"},
      {"compound": "Cc1cccc(NC(=O)CN2CCN(CC(=O)NCc3ccc(Cl)cc3Cl)CC2)c1C", "Potency": "active: 23.1 µM"},
      {"compound": "CC(C)C(=O)NC(=S)Nc1ccccc1C(=O)Nc1ccccc1", "activity change, negative = growth inhibition": "inconclusive: -30.4% [inhibitor]"},
      {"compound": "Cc1ccccc1C(=O)Nc1cc2c(cc1N1CCOCC1)n(C)c(=O)n2C", "activity change, negative = growth inhibition": "inconclusive: -33.2% [inhibitor]"},
      {"compound": "O=c1c2c3c(sc2nc(NCCOCCO)n1Cc1ccco1)CCCCC3", "Potency": "inconclusive [inhibitor, single point]"},
      {"compound": "CCOc1ccc(C(=O)c2cn(CC(=O)Nc3ccc(OC)cc3)c3cc4c(cc3c2=O)OCCO4)cc1", "Potency": "inconclusive [inhibitor, single point]"},
      {"compound": "Cc1ccc2oc3c(c(=O)c2c1)C(c1ccc(O)cc1)N(Cc1ccc2c(c1)OCO2)C3=O", "note": "(centres undefined)", "Potency": "active: 14.6 µM"},
      {"compound": "COc1cccc(-c2cnc3c(NC=O)cc(-c4ccc(OC)cc4OC)cn23)c1", "Potency": "active: 0.0146 µM"},
      {"compound": "CCOC(=O)Nc1ccc2c(c1)N(C(=O)C(C)N1CCCC1)c1ccccc1CC2", "note": "(centres undefined)", "Potency": "inconclusive [inhibitor, single point]"},
      {"compound": "Cc1cc(OC(C)C(=O)NCc2cccnc2)c2c(C)cc(=O)oc2c1", "note": "(centres undefined)", "Potency": "inconclusive [inhibitor, single point]"},
      {"compound": "CCNC(=O)C1(C)CCCN(Cc2cc3ccccc3o2)C1", "note": "(centres undefined)", "Potency": "inconclusive [inhibitor, partial curve]"},
      {"compound": "COc1ccc(Cl)cc1NC(=O)CN(C)CC(=O)Nc1cccc(S(=O)(=O)N2CCCC2)c1", "Potency": "active: 23.1 µM"},
      {"compound": "CCOC(=O)c1[nH]c(C)c(C(=O)NCC2CCCO2)c1C", "note": "(centres undefined)", "activity change, negative = growth inhibition": "inactive: -12.5%"},
      {"compound": "Cc1ccc2nc3n(c2c1)CCCN3", "activity change, negative = growth inhibition": "inactive: -0.0236%"},
      {"compound": "CC(C)C[C@H](NC(=O)c1nc[nH]c1C(=O)N(C)Cc1ccccc1)C(=O)OCc1ccccc1", "Potency": "inconclusive [inhibitor, single point]"},
      {"compound": "Cc1cccnc1C1=NOC(Cc2ccccc2)C(=O)N1CCOc1ccc(F)cc1", "note": "(centres undefined)", "Potency": "active: 16.4 µM"},
      {"compound": "CNC(=O)NC(=O)C(C)OC(=O)CCCc1nc2ccccc2s1", "note": "(centres undefined)", "activity change, negative = growth inhibition": "inactive: 0.429%"},
      {"compound": "CC1(C)CC(=O)C(CSC(=O)c2ccccc2)C(=O)C1", "Potency": "active: 13 µM"},
      {"compound": "CC(=O)O[C@@H](Cc1ccc(O)cc1)C(=O)CC(C)C", "activity change, negative = growth inhibition": "inactive: -4.62%"},
      {"compound": "CN1CCN(C(=O)c2ccc(CN(c3ccccc3)S(=O)(=O)c3ccccc3)cc2)CC1", "Potency": "inconclusive [inhibitor, single point]"},
      {"compound": "Cc1cc(C)c2nc(N(CCN(C)C)C(=O)c3ccc4ccccc4c3)sc2c1", "Potency": "active: 16.4 µM"},
      {"compound": "COc1ccc2[nH]c(=O)c(CN(C(=O)c3cccc(Cl)c3)c3ccccc3C)cc2c1", "Potency": "inconclusive [inhibitor, single point]"},
      {"compound": "COc1ccc(-n2c(=O)c(CCC(=O)N(C)Cc3ccccc3C)nc3ccccc32)cc1", "Potency": "inconclusive [inhibitor, single point]"},
      {"compound": "Cc1ccc(S(=O)(=O)N2[C@@H](c3cccc(C)c3)C(C(=O)O)=C[C@H]2C(C)(C)C)cc1", "activity change, negative = growth inhibition": "inactive: -6.22%"},
      {"compound": "COc1cc(/C=C2\\SC(=S)N(CCC(=O)NC3CCCC3)C2=O)cc(OC)c1OC", "Potency": "inconclusive [inhibitor, single point]"},
      {"compound": "Cc1ccc(-c2nnn(CC(=O)N(c3cccc(F)c3)C(C(=O)NC3CCCC3)c3ccco3)n2)o1", "note": "(centres undefined)", "Potency": "active: 20.6 µM"},
      {"compound": "Clc1ccc(-c2nc3cnccn3c2Nc2ccc3c(c2)OCO3)cc1", "Potency": "inconclusive [inhibitor, single point]"},
      {"compound": "CCC(CC)NC(=O)C1CCN(S(=O)(=O)c2cccs2)CC1", "Potency": "inconclusive [inhibitor, single point]"},
      {"compound": "Cc1cccc(NC(=O)c2cccc(S(=O)(=O)N(C)C3CCCCC3)c2)n1", "Potency": "inconclusive [inhibitor, single point]"},
      {"compound": "Cn1cc(SCC(=O)N2CCCc3ccccc32)c2ccccc21", "Potency": "inconclusive [inhibitor, single point]"},
      {"compound": "CC(C)CC(=O)N1CCN(C(=O)CCC2CCCC2)CC1", "Potency": "inconclusive [inhibitor, single point]"},
      {"compound": "Cc1ccc(CNC(=O)c2sc3nc[nH]c(=O)c3c2C)cc1", "activity change, negative = growth inhibition": "inactive: -10.6%"},
      {"compound": "C[C@@H]1CN([C@@H](C)CO)C(=O)c2cc(Br)cnc2O[C@@H]1CN(C)S(=O)(=O)c1ccc(F)cc1", "Potency": "inconclusive [inhibitor, partial curve, poor fit]"},
      {"compound": "Cn1ccsc1=NC(=O)c1ccccc1F", "activity change, negative = growth inhibition": "inactive: 16.9%"},
      {"compound": "CC(=O)c1c(C)[nH]c(C(=O)CN(C)CC(=O)Nc2ccccc2Cl)c1C", "Potency": "inconclusive [inhibitor, single point]"},
      {"compound": "Cc1ccc(O)c(NC(=O)Cc2ccc3ccccc3c2)c1", "activity change, negative = growth inhibition": "inactive: 4.6%"},
      {"compound": "O=C(C(=O)N1CCC(c2ccccc2)CC1)c1ccc(F)c(F)c1", "Potency": "inconclusive [inhibitor, single point]"},
      {"compound": "CC(Cc1c[nH]c2ccccc12)C(=O)N1CCN(c2ccccc2F)CC1", "note": "(centres undefined)", "Potency": "inconclusive [inhibitor, single point]"}
    ]}
  ]
}
